Assay results reported in PubChem BioAssay AID2147 (National Center for Advancing Translational Sciences (NCATS), 2009).
Among all 230,000 compounds or so, about 3,600 (1.6%) were called active. Inconclusive means that the source gave no clear call. Such entries were picked first, then a sample of the others. Calls come from the whole dose curve; as a rule, active = well fitted inhibition curve with a large enough effect (not every such curve was filed as active); inconclusive = small, poorly fitted or top-dose-only effect, or another doubt; inactive = no such curve, though single readings can be large or run the other way. Potencies of inconclusive entries are doubtful fits and often do not repeat.

Target: Lysine-specific demethylase 4E (Homo sapiens) (UniProt B2RXH2)
Chain of UniProt B2RXH2 (B2RXH2 whole entry, looked up, the tested form may be a part): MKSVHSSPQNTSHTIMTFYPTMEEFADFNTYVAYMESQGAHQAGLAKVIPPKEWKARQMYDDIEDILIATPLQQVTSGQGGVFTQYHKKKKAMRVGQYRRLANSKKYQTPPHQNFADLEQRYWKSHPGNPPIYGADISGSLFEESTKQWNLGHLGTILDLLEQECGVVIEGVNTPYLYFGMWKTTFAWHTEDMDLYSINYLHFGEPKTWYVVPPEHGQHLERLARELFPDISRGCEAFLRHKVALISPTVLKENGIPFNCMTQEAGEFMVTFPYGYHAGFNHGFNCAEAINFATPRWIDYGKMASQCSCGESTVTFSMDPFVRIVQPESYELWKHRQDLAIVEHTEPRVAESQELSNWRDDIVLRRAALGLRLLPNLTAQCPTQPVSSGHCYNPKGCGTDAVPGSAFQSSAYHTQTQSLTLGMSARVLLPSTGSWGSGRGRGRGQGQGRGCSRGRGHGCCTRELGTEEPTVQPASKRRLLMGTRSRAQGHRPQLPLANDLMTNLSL
Experiment: qHTS Assay for Inhibitors of Human Jumonji Domain Containing 2E (JMJD2E)
Conditions: JMJD2E catalytic domain, FDH-coupled NADH fluorescence (FDH is formaldehyde dehydrogenase); series mostly up to 57.1 µM; activity change, negative = inhibition: at the top concentration
Note: nearly all actives have a fitted effect of over 50% in size.
Potency is the fitted concentration of half-maximal effect; tags give direction and shape of the fitted curve.
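Throughout, for activity change, negative = inhibition: 0% = wells with enzyme and -100% = buffer wells without enzyme.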

Structure (SMILES)	Potency	activity change, negative = inhibition
CCOc1cc(/C=C2/C(=N)N3OC(C)=CC3=NC2=O)ccc1OC(=O)c1ccco1	inconclusive: 3.98 µM [inhibitor, full curve]	–
N#CCCNC(=O)CCN1CCCCC1	–	inactive: 10.3%
[O-]/[N+](=C\c1ccncc1)c1ccccc1	–	inactive: -3.05%
CC(=O)OCC1OC(Sc2cccc3cccnc23)C(OC(C)=O)C(OC(C)=O)C1OC(C)=O (stereo not given)	inconclusive: 28.2 µM [inhibitor, partial curve]	–
CC(C)CCC(CCN1CCCC1)c1ccc2c(c1)OCO2 (stereo not given)	inconclusive: 31.6 µM [inhibitor, single point]	–
Cc1cc(C)c2[nH]c(=O)c(CN(Cc3cccs3)C(=S)NCc3ccco3)cc2c1	inconclusive: 25.1 µM [inhibitor, single point]	–
Cc1cc2c(=O)oc(-c3ccc(Br)cc3)nc2s1	inconclusive: 25.1 µM [inhibitor, single point]	–
Cc1ccc(S(=O)(=O)Nc2cccc(CP(=O)(c3ccccc3)c3ccccc3)c2)cc1	–	inactive: -2.4%
O=C(Nc1ccn(-c2ccccc2)n1)c1ccc(S(=O)(=O)N2CCCCCC2)cc1	inconclusive: 39.8 µM [inhibitor, single point]	–
COc1ccc(/C=N/NC(=O)c2cccnc2)c(C(=O)O)c1OC	–	inactive: 5.97%
O=C(CCCCCN1C(=O)c2cccc3cccc(c23)C1=O)NCc1cccnc1	inconclusive: 31.6 µM [inhibitor, partial curve]	–
CS(=O)(=O)N(Cc1ccccc1)c1ccc(C(=O)NCc2ccccc2)cc1	–	inactive: 4.3%
Cc1nn2c(C(F)(F)F)cc(-c3ccc(Cl)cc3)nc2c1C(=O)N1CCOCC1	–	inactive: -0.186%
COc1ccc(C2C3=C(CCCC3=O)Nc3ccc4ncccc4c32)cc1OC (stereo not given)	inconclusive: 28.2 µM [inhibitor, single point]	–
CCOC(=O)C1CCN(c2nc(C)cc(C)c2C#N)CC1	inconclusive: 28.2 µM [inhibitor, partial curve]	–
CC(=O)Nc1ccc(NC2=C/C(=N/S(=O)(=O)c3cccs3)c3ccccc3C2=O)cc1	–	inactive: 43.3%
Cc1cc(N2CCCC2)ccc1/C=C1\NC(=S)N(C)C1=O	–	inactive: -2.25%
CN(C)c1ccc(C2C3C(=O)N(c4ccc(C(=O)O)cc4)C(=O)C3ON2c2ccccc2)cc1 (stereo not given)	–	inactive: -6.73%
CCc1ccc(-c2nc(CSCC(=O)NCCCN3CCCC3=O)c(C)o2)cc1	inconclusive: 3.16 µM [inhibitor, partial curve]	–
O=c1c(-c2ccccc2)coc2cc(O)ccc12	inconclusive: 28.2 µM [inhibitor, partial curve]	–
CCN1C(=O)c2cccc3c(S(=O)(=O)NCc4cccnc4)ccc1c23	inconclusive: 35.5 µM [inhibitor, single point]	–
COc1ccc(C2Nc3ccccc3C(=O)N2NS(=O)(=O)c2ccc(C)cc2)cc1 (stereo not given)	inconclusive: 28.2 µM [inhibitor, partial curve]	–
N/C(=N\OC(=O)c1cnn(-c2ccccc2)c1C(F)(F)F)c1ccc(C(F)(F)F)cc1	–	inactive: 9.25%

Structure (SMILES)	Potency	activity change, negative = inhibition
O=c1[nH]c(NNC(=S)NCc2ccccc2)nc2c1C1(CCCCC1)Cc1ccccc1-2	inconclusive: 31.6 µM [inhibitor, partial curve]	–
CCOC(=O)c1sc2cc([N+](=O)[O-])cc(SCC(=O)OC)c2c1N	–	inactive: -21.4%
COc1cc(NC(=S)N2CCN(c3ccccn3)CC2)cc(OC)c1OC	–	inactive: -5.19%
O=C(NC1CCCC1)c1cc2nc(-c3ccccc3)cc(-c3ccccc3)n2n1	inconclusive: 31.6 µM [inhibitor, partial curve]	–
Cc1ccc(-c2cc(C(=O)NCc3ccccn3)c3ccccc3n2)cc1	inconclusive: 31.6 µM [inhibitor, partial curve]	–
C/C(=N\N=C(N)N)c1cccc(Cl)c1	inconclusive: 39.8 µM [inhibitor, partial curve, poor fit]	–
Cc1cc2nnc(SCC(=O)N3CCOCC3)n2c2ccccc12	inconclusive: 39.8 µM [inhibitor, single point]	–
CCCCC(=O)NCCc1cc2c(OC)ccc(OC)c2[nH]c1=O	inconclusive: 39.8 µM [inhibitor, single point]	–
CCOC(=O)CC(c1ccc(N)cc1)n1c(C)ccc1C (stereo not given)	inconclusive: 25.1 µM [inhibitor, single point]	–
Cc1cc(=O)oc2cc(OCc3cc4c(cc3Cl)OCO4)ccc12	inconclusive: 8.91 µM [inhibitor, single point]	–
CCCNC(=O)c1noc2c1CCc1cc(OC)ccc1-2	inconclusive: 39.8 µM [inhibitor, single point]	–
Oc1ccc(Cl)cc1-c1cc(-c2ccccc2)n[nH]1	–	inactive: -4.26%
COc1ccc(-n2ncc3c(=O)n(Cc4c(F)cccc4Cl)cnc32)cc1	inconclusive: 31.6 µM [inhibitor, partial curve]	–
Cc1ccc(-c2[nH]nc3c2C(c2cccnc2)C(C#N)=C(N)O3)cc1 (stereo not given)	–	inactive: -15%
Cc1cc(C)c2nc(-c3ccco3)cc(C(=O)O)c2c1	inconclusive: 28.2 µM [inhibitor, partial curve]	–
O=C(Nc1cccc(-c2nc3cccnc3s2)c1)c1ccc(Cl)nc1	inconclusive: 35.5 µM [inhibitor, single point]	–
COc1c(N2CCN(C(=S)Nc3ccccc3F)C(C)C2)c(F)cc2c(=O)c(C(=O)O)cn(C3CC3)c12 (stereo not given)	inconclusive: 28.2 µM [inhibitor, partial curve]	–
CCOC(=O)COc1cccc2c(=O)n(CC(N)=O)ccc12	inconclusive: 31.6 µM [inhibitor, single point]	–
CC(=O)c1ccc(N=Nc2ccc(N(C)C)cc2)cc1	inconclusive: 12.6 µM [inhibitor, partial curve, poor fit]	–
Cc1c(Cl)cccc1NC(=O)CNCc1ccccc1F	–	inactive: 0.577%
C=CCn1c(O)c(N=NC(=O)CNC(=O)/C=C/c2ccco2)c2ccccc21	–	inactive: -4.15%
COC(=O)Cc1c(C)c2ccc(O)c(CN3CCCC(C)C3)c2oc1=O (stereo not given)	inconclusive: 1.26 µM [inhibitor, full curve]	–
